# Results as given in the supplement of paper PMC8728848.
# This is one part of the list.
# B1: GS7807E-bfa-538-23-538 (Bacteroides fragilis) (protein)
# chain: TDSFESFNTNEAGFDNDSKKQDFNYYGIPLGIIQQGIYFNYDWGSGKNWPFQTMQNLGADLFSGYVHDFNPFNEGKNNSTYYMMDGWNGSTWDNTYGYIMPEVQKSETINEKDNIGFFGITKILKVELMHRLSDLYGPIVYTQFGSKTGSTPDTQQEAYKAFFNDLDTGIAKIREYQKANPDIESFAKFDILMPQGKRTFSEWIRFANSLRLRLAVRIAMADSKLAVAEAQKALTDEEGLLEGNDEVVAVSTSSGYTNPFGEINKAWGEVFMNANMESLLVGYEDPRMEKYFDKATGSDATSLIDYKGTYKGIRQGTGFSHKNYNGHSKSTITQQTDAVLMTPAEVWFLRAEAALRGWSSESVKDCYEKGVKASFAQWGAAGAEAYLESDRKPSDYVDAFKAANNVKAVNTLTPKWDDAAGNEDKLGRIITQKWLAMFPEGGEAWAEQRRTGYPRLFPVLVNQSEGTVDTNLGPRRLNFFVGIKTTNPEQYTQLVNALGGIDNCGTRLWWDTGRNF
# What was measured:
# Test in all cases: glycan array binding signal (z-score within array); higher = stronger binding
# Details in all cases: glycan notation: IUPAC condensed, linker removed
# [1] = target: Fuc(a1-3)[Gal(b1-4)]GlcNAc(b1-3)Gal(b1-4)[Fuc(a1-3)]GlcNAc
# Method in brief: (§1)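 Glycan array binding is given as a within-array Z-score, which can be read as non-binding when negative. The arrays, 3228 of them, came from the Consortium for Functional Glycomics database and were retained only where the protein sequence was available. Z-scores were averaged across arrays of the same protein sequence at different concentrations or buffers and across linkers.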
# [2] = target: Fuc(a1-3)[Gal(b1-4)]GlcNAc(b1-3)Gal(b1-4)[Fuc(a1-3)]GlcNAc(b1-3)Gal(b1-4)[Fuc(a1-3)]GlcNAc
# Method in brief: as §1
# [3] = target: Fuc(a1-3)[Gal(b1-4)]GlcNAc(b1-3)GalNAc
# Method in brief: as §1
# [4] = target: Fuc(a1-3)[Gal(b1-4)]GlcNAc(b1-6)GalNAc
# Method in brief: as §1
# [5] = target: Fuc(a1-3)[Gal(b1-4)]GlcNAc(b1-6)[Gal(b1-3)GlcNAc(b1-3)]Gal(b1-4)Glc
# Method in brief: as §1
# [6] = target: Fuc(a1-3)[Gal(b1-4)]GlcNAc6S
# Method in brief: as §1
# [7] = target: Fuc(a1-3)[Gal3S(b1-4)]Glc
# Method in brief: as §1
# [8] = target: Fuc(a1-3)[Gal3S(b1-4)]GlcNAc
# Method in brief: as §1
# [9] = target: Fuc(a1-3)[Gal3S(b1-4)]GlcNAc6S
# Method in brief: as §1
# [10] = target: Fuc(a1-3)[GalNAc(b1-4)]GlcNAc
# Method in brief: as §1
# [11] = target: Fuc(a1-3)[GalNAc(b1-4)]GlcNAc6S
# Method in brief: as §1
# Fuc(a1-4)GlcNAc = target: Fuc(a1-4)GlcNAc
# Method in brief: as §1
# Fuc(b1-3)GlcNAc = target: Fuc(b1-3)GlcNAc
# Method in brief: as §1
# Gal(a1-2)Gal = target: Gal(a1-2)Gal
# Method in brief: as §1
# Gal(a1-3)Gal = target: Gal(a1-3)Gal
# Method in brief: as §1
# Gal(a1-3)Gal(b1-3)GlcNAc = target: Gal(a1-3)Gal(b1-3)GlcNAc
# Method in brief: as §1
# [12] = target: Gal(a1-3)Gal(b1-3)GlcNAc(b1-2)Man
# Method in brief: as §1
# [13] = target: Gal(a1-3)Gal(b1-3)GlcNAc(b1-2)Man(a1-3)[Gal(a1-3)Gal(b1-3)GlcNAc(b1-2)Man(a1-6)]Man(b1-4)GlcNAc(b1-4)GlcNAc
# Method in brief: as §1
# [14] = target: Gal(a1-3)Gal(b1-3)GlcNAc(b1-3)GalNAc
# Method in brief: as §1
# [15] = target: Gal(a1-3)Gal(b1-3)GlcNAc(b1-6)GalNAc
# Method in brief: as §1
# [16] = target: Gal(a1-3)Gal(b1-3)[Fuc(a1-4)]GlcNAc(b1-2)Man(a1-3)[Gal(a1-3)Gal(b1-3)[Fuc(a1-4)]GlcNAc(b1-2)Man(a1-6)]Man(b1-4)GlcNAc(b1-4)GlcNAc
# Method in brief: as §1
# Gal(a1-3)Gal(b1-4)Glc = target: Gal(a1-3)Gal(b1-4)Glc
# Method in brief: as §1
# Gal(a1-3)Gal(b1-4)GlcNAc = target: Gal(a1-3)Gal(b1-4)GlcNAc
# Method in brief: as §1
# [17] = target: Gal(a1-3)Gal(b1-4)GlcNAc(b1-2)Man
# Method in brief: as §1
# [18] = target: Gal(a1-3)Gal(b1-4)GlcNAc(b1-2)Man(a1-3)[Gal(a1-3)Gal(b1-4)GlcNAc(b1-2)Man(a1-6)]Man(b1-4)GlcNAc(b1-4)GlcNAc
# Method in brief: as §1
# [19] = target: Gal(a1-3)Gal(b1-4)GlcNAc(b1-3)GalNAc
# Method in brief: as §1
# [20] = target: Gal(a1-3)Gal(b1-4)GlcNAc(b1-6)GalNAc
# Method in brief: as §1
# [21] = target: Gal(a1-3)Gal(b1-4)[Fuc(a1-3)]GlcNAc
# Method in brief: as §1
# [22] = target: Gal(a1-3)Gal(b1-4)[Fuc(a1-3)]GlcNAc(b1-2)Man(a1-3)[Gal(a1-3)Gal(b1-4)[Fuc(a1-3)]GlcNAc(b1-2)Man(a1-6)]Man(b1-4)GlcNAc(b1-4)GlcNAc
# Method in brief: as §1
# Gal(a1-3)GalNAc = target: Gal(a1-3)GalNAc
# Method in brief: as §1
# [23] = target: Gal(a1-3)[Gal(a1-4)]Gal(b1-4)GlcNAc
# Method in brief: as §1
# [24] = target: Gal(a1-4)Gal(b1-3)GlcNAc(b1-2)Man(a1-3)[Gal(a1-4)Gal(b1-3)GlcNAc(b1-2)Man(a1-6)]Man(b1-4)GlcNAc(b1-4)GlcNAc
# Method in brief: as §1
# Gal(a1-4)Gal(b1-4)Glc = target: Gal(a1-4)Gal(b1-4)Glc
# Method in brief: as §1
# Gal(a1-4)Gal(b1-4)GlcNAc = target: Gal(a1-4)Gal(b1-4)GlcNAc
# Method in brief: as §1
# [25] = target: Gal(a1-4)Gal(b1-4)GlcNAc(b1-2)Man(a1-3)[Gal(a1-4)Gal(b1-4)GlcNAc(b1-2)Man(a1-6)]Man(b1-4)GlcNAc(b1-4)GlcNAc
# Method in brief: as §1
# [26] = target: Gal(a1-4)Gal(b1-4)GlcNAc(b1-3)Gal(b1-4)Glc
# Method in brief: as §1
# Gal(a1-4)GlcNAc = target: Gal(a1-4)GlcNAc
# Method in brief: as §1
# Gal(a1-6)Glc = target: Gal(a1-6)Glc
# Method in brief: as §1
binder,measurement,setting,value
B1,glycan array binding signal (z-score),[1],-0.187
same,glycan array binding signal (z-score),[2],-0.679
same,glycan array binding signal (z-score),[3],0.467
same,glycan array binding signal (z-score),[4],-0.366
same,glycan array binding signal (z-score),[5],-0.613
same,glycan array binding signal (z-score),[6],0.44
same,glycan array binding signal (z-score),[7],-0.105
same,glycan array binding signal (z-score),[8],-0.491
same,glycan array binding signal (z-score),[9],1.58
same,glycan array binding signal (z-score),[10],-0.084
same,glycan array binding signal (z-score),[11],1.13
same,glycan array binding signal (z-score),Fuc(a1-4)GlcNAc,-0.688
same,glycan array binding signal (z-score),Fuc(b1-3)GlcNAc,-0.707
same,glycan array binding signal (z-score),Gal(a1-2)Gal,0.195
same,glycan array binding signal (z-score),Gal(a1-3)Gal,0.113
same,glycan array binding signal (z-score),Gal(a1-3)Gal(b1-3)GlcNAc,-0.602
same,glycan array binding signal (z-score),[12],-0.504
same,glycan array binding signal (z-score),[13],1.55
same,glycan array binding signal (z-score),[14],0.529
same,glycan array binding signal (z-score),[15],0.428
same,glycan array binding signal (z-score),[16],10.5
same,glycan array binding signal (z-score),Gal(a1-3)Gal(b1-4)Glc,-0.019
same,glycan array binding signal (z-score),Gal(a1-3)Gal(b1-4)GlcNAc,-0.195
same,glycan array binding signal (z-score),[17],-0.548
same,glycan array binding signal (z-score),[18],1
same,glycan array binding signal (z-score),[19],1.27
same,glycan array binding signal (z-score),[20],0.296
same,glycan array binding signal (z-score),[21],1.36
same,glycan array binding signal (z-score),[22],0.62
same,glycan array binding signal (z-score),Gal(a1-3)GalNAc,-0.323
same,glycan array binding signal (z-score),[23],0.869
same,glycan array binding signal (z-score),[24],0.984
same,glycan array binding signal (z-score),Gal(a1-4)Gal(b1-4)Glc,1.11
same,glycan array binding signal (z-score),Gal(a1-4)Gal(b1-4)GlcNAc,0.333
same,glycan array binding signal (z-score),[25],0.087
same,glycan array binding signal (z-score),[26],-0.087
same,glycan array binding signal (z-score),Gal(a1-4)GlcNAc,-0.696
same,glycan array binding signal (z-score),Gal(a1-6)Glc,-0.29
